# In the supplement of paper PMC12217912:
# The other results are listed elsewhere or left out. Sequences were assembled here from the parent chain. Values near 0.05 are background.
# B1: TEV protease; numbered along this chain (parent)
# chain: MGESLFKGPRDYNPISSSICHLTNESDGHTTSLYGIGFGPFIITNKHLFRRNNGTLVVQSLHGVFKVKDTTTLQQHLVDGRDMIIIRMPKDFPPFPQKLKFREPQREERICLVTTNFQTKSMSSMVSDTSCTFPSGDGIFWKHWIQTKDGQCGSPLVSTRDGFIVGIHSASNFTNTNNYFTSVPKNFMELLTNQEAQQWVSGWRLNADSVLWGGHKVFMVKPEEPFQPVKEATQL
# Variants of: B1
# Assay: raw area under fraction-flipped curve 0-4 h after induction (AUC4h, not background-subtracted), DNA-recorder readout of cleavage of the substrate (dimensionless); higher = more cleavage of the substrate by the protease variant
# Conditions: temperature: 34 °C; time window: 0-4 h after rhamnose induction
# 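Also: Bxb1 expression induced with 0.2% (w/v) L-rhamnose at OD600 near 0.5, cultures sampled hourly, flipped fraction per protease–substrate barcode pair counted by paired-end Illumina sequencing.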
Variant,area with substrate CNLYFQS,area with substrate FNLYFQS,area with substrate GNLYFQS,area with substrate HNLYFQS,area with substrate INLYFQS,area with substrate LNLYFQS,area with substrate MNLYFQS,area with substrate NNLYFQS,area with substrate PNLYFQS,area with substrate RNLYFQS,area with substrate TNLYFQS,area with substrate WNLYFQS,area with substrate SNLYFQS,area with substrate VNLYFQS,area with substrate YNLYFQS,area with substrate KNLYFQS,area with substrate QNLYFQS,area with substrate DNLYFQS
MGESLFKGPRDYNPISSSICHLTNESDGHTTSLYGIGFGPFIITNKHLFRRNNGTLVVQSLHGVFKVKDTTTLQQHLVDGRDMIIIRMPKDFPPFPQKLKFREPQREERICLVTTNFQTKSMSSMVSDTSCTFPSGDGIFWKHWIQTKDGQCGSPLVSTRDGFIVGIHSASNFTNTNNYFTSVPKNFMELLTNQEAQQWVSGWRLNADSVLWGGHKVFQVKPEEPFQPVKEATQL [M219Q],0.0561,0.0418,0.0526,0.0603,0.0495,0.0658,0.0562,0.0634,0.0595,0.0839,0.0669,0.056,–,–,–,–,–,–
MGESLFKGPRDYNPISSSICHLTNESDGHTTSLYGIGFGPFIITNKHLFRRNNGTLVVQSLHGVFKVKDTTTLQQHLVDGRDMIIIRMPKDFPPFPQKLKFREPQREERICLVTTNFQTKSMSSMVSDTSCTFPSGDGIFWKHWIQTKDGQCGSPLVSTRDGFIVGIHSASNFTNTNNYFTSVPKNFMELLTNQEAQQWVSGWRLNADSVLWGGHKVFRVKPEEPFQPVKEATQL [M219R],0.0622,0.0615,0.0623,0.0624,0.0588,0.0549,0.0561,0.0605,–,0.0482,0.0723,0.0587,0.0556,0.0525,0.0641,–,–,–
MGESLFKGPRDYNPISSSICHLTNESDGHTTSLYGIGFGPFIITNKHLFRRNNGTLVVQSLHGVFKVKDTTTLQQHLVDGRDMIIIRMPKDFPPFPQKLKFREPQREERICLVTTNFQTKSMSSMVSDTSCTFPSGDGIFWKHWIQTKDGQCGSPLVSTRDGFIVGIHSASNFTNTNNYFTSVPKNFMELLTNQEAQQWVSGWRLNADSVLWGGHKVFMVNPEEPFQPVKEATQL [K221N],0.0657,0.0469,0.058,0.05,0.0665,0.0631,0.0543,0.0297,0.0626,–,0.0642,0.0594,0.0697,0.0585,0.056,–,–,–
MGESLFKGPRDYNPISSSICHLTNESDGHTTSLYGIGFGPFIITNKHLFRRNNGTLVVQSLHGVFKVKDTTTLQQHLVDGRDMIIIRMPKDFPPFPQKLKFREPQREERICLVTTNFQTKSMSSMVSDTSCTFPSGDGIFWKHWIQTKDGQCGSPLVSTRDGFIVGIHSASNFTNTNNYFTSVPKNFMELLTNQEAQQWVSGWRLNADSVLWGGHKVFMVTPEEPFQPVKEATQL [K221T],0.0769,0.0659,0.0606,0.0545,–,0.0528,–,–,–,–,0.0356,0.0602,–,–,0.0472,–,–,–
MGESLFKGPRDYNPISSSICHLTNESDGHTTSLYGIGFGPFIITNKHLFRRNNGTLVVQSLHGVFKVKDTTTLQQHLVDGRDMIIIRMPKDFPPFPQKLKFREPQREERICLVTTNFQTKSMSSMVSDTSCTFPSGDGIFWKHWIQTKDGQCGSPLVSTRDGFIVGIHSASNFTNTNNYFTSVPKNFMELLTNQEAQQWVSGWRLNADSVLWGGHKVFMVYPEEPFQPVKEATQL [K221Y],0.0499,0.0654,–,0.0522,0.0689,0.0486,0.0564,0.0808,–,–,0.0577,0.0483,0.0652,0.0527,0.0636,0.0606,0.0611,–
MGESLFKGPRDYNPISSSICHLTNESDGHTTSLYGIGFGPFIITNKHLFRRNNGTLVVQSLHGVFKVKDTTTLQQHLVDGRDMIIIRMPKDFPPFPQKLKFREPQREERICLVTTNFQTKSMSSMVSDTSCTFPSGDGIFWKHWIQTKDGQCGSPLVSTRDGFIVGIHSASNFTNTNNYFTSVPKNFMELLTNQEAQQWVSGWRLNADSVLWGGHKVFMVKGEEPFQPVKEATQL [P222G],0.0687,–,–,0.0328,0.0441,0.0671,0.0393,0.0652,0.0361,–,0.0612,0.0521,0.0699,0.0638,0.0634,–,–,–
MGESLFKGPRDYNPISSSICHLTNESDGHTTSLYGIGFGPFIITNKHLFRRNNGTLVVQSLHGVFKVKDTTTLQQHLVDGRDMIIIRMPKDFPPFPQKLKFREPQREERICLVTTNFQTKSMSSMVSDTSCTFPSGDGIFWKHWIQTKDGQCGSPLVSTRDGFIVGIHSASNFTNTNNYFTSVPKNFMELLTNQEAQQWVSGWRLNADSVLWGGHKVFMVKMEEPFQPVKEATQL [P222M],0.0894,0.0446,0.0798,–,–,–,0.0583,0.0871,0.0699,–,0.05,0.11,0.0576,0.0507,0.0541,0.08,–,0.0719
MGESLFKGPRDYNPISSSICHLTNESDGHTTSLYGIGFGPFIITNKHLFRRNNGTLVVQSLHGVFKVKDTTTLQQHLVDGRDMIIIRMPKDFPPFPQKLKFREPQREERICLVTTNFQTKSMSSMVSDTSCTFPSGDGIFWKHWIQTKDGQCGSPLVSTRDGFIVGIHSASNFTNTNNYFTSVPKNFMELLTNQEAQQWVSGWRLNADSVLWGGHKVFMVKVEEPFQPVKEATQL [P222V],0.0641,–,0.072,0.0544,–,0.0668,0.0566,0.0647,0.0666,–,0.0647,0.0523,0.0607,–,0.0638,–,0.0717,–
MGESLFKGPRDYNPISSSICHLTNESDGHTTSLYGIGFGPFIITNKHLFRRNNGTLVVQSLHGVFKVKDTTTLQQHLVDGRDMIIIRMPKDFPPFPQKLKFREPQREERICLVTTNFQTKSMSSMVSDTSCTFPSGDGIFWKHWIQTKDGQCGSPLVSTRDGFIVGIHSASNFTNTNNYFTSVPKNFMELLTNQEAQQWVSGWRLNADSVLWGGHKVFMVKPFEPFQPVKEATQL [E223F],0.0541,–,–,0.0873,0.0642,0.0658,0.056,–,0.0584,–,0.0952,–,0.0673,–,0.0739,–,0.085,–
